42 sequences from publication PMC7819943, “Rice protein-binding microarrays: a tool to detect cis-acting elements near promoter regions in rice” can be followed below.

This is one part of the list.

This assay concerns the target T1, OsWOX13 (Oryza sativa, UniProt Q5QMM3 1-267).
T1 sequence: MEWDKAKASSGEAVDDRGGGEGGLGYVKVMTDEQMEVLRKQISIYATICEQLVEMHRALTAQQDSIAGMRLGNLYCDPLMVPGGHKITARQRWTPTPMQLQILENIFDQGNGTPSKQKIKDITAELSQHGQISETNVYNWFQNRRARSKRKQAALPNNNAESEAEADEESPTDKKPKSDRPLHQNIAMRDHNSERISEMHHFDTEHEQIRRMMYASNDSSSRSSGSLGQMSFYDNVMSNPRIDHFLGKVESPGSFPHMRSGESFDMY
Nature of the assay: protein-binding microarray (RPBM); PBS, 2% BSA, 51.3 ng/ul salmon testes DNA, 50 uM zinc acetate, 200 nM TF, 25 C, 1 h; high values mean tight binding. To be noted: protein: recombinant; tags: N-terminal polyhistidine and DsRed monomer fusion (pET32a); label: CyDye5-dUTP incorporated in the synthesized complementary strand; 3' TTTTT single-stranded linker to array surface; dsDNA, one strand shown. The procedure, abridged:
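The binding signal is fluorescence intensity per feature, in arbitrary units, read on an Axon 4000B scanner. Polyhistidine- and DsRed-tagged transcription factors (N-terminal fusions) from E. coli BL21-CodonPlus were purified on Ni–NTA and applied at 200 nM for 1 h at 25 °C to a double-stranded, BSA-blocked custom Agilent array in buffer with 50 µM zinc acetate.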
Turning to “AGATTTAATTGCAACGAATTTAATGGTGCAATCGGATCATCGGAGTCACCTAGTGCAG”, the binding signal was 24500 fluorescence intensity (a.u.).
Consider “TGTACATATTAACAGATAGTCTGTGTCCTATACTGAAATGCGGAGTCACCTAGTGCAG”, for which the binding signal is 3490 fluorescence intensity (a.u.).
“TTTGTATTTCTGTCATGATTATGATGGTAGTAAATATGTACGGAGTCACCTAGTGCAG”: the binding signal was 4510 fluorescence intensity (a.u.).
In the case of “CATAATTTCTTCTGCTCTTTATCTGAAACCTTCACTTGTGCGGAGTCACCTAGTGCAG”, the binding signal is 13700 fluorescence intensity (a.u.).
The value for “AAATGACTGAATTCTGCCTAGTTAATATATAGAATTAAGCCGGAGTCACCTAGTGCAG” was 4470 fluorescence intensity (a.u.); that for “CCTCTAATTTCATACTAATCCACTAATGAAATATCTGACCCGGAGTCACCTAGTGCAG” was 15900 fluorescence intensity (a.u.); that for “CCAAAGCACCAATCATCTAGCTACTTCTATGCTTTCTTCACGGAGTCACCTAGTGCAG” was 5800 fluorescence intensity (a.u.).
Regarding “ACCATGATTTGACAATATGGTGCTACAGTAAACATTTGCTCGGAGTCACCTAGTGCAG”, the binding signal is 40800 fluorescence intensity (a.u.).
Turning to “TTGATGAGCAAAATTTGTTTGGTTTTATTTTACATGCAGCCGGAGTCACCTAGTGCAG”, the binding signal is 12400 fluorescence intensity (a.u.).
Then “TATCAAATTTGAATTCAAACCTAAACTCCAATTCTCTCCACGGAGTCACCTAGTGCAG”, with 5380 fluorescence intensity (a.u.); and “CAAATTAACAGAAAAGAAAATGATCTACATTCCCCTCATCCGGAGTCACCTAGTGCAG”, with 19800 fluorescence intensity (a.u.).
“CTGACGGATAGTATGATTATCATGTTCGTTTCTGTTTCAACGGAGTCACCTAGTGCAG”: the binding signal was 10200 fluorescence intensity (a.u.).
“ATCTAAAATTATTAAAATTAAATTGAAGAGTAGGGTAGCACGGAGTCACCTAGTGCAG”: the binding signal was 23000 fluorescence intensity (a.u.).
Then “CCCGGACGGGATCTGTAATTATATGCAATGCTATCAGACGCGGAGTCACCTAGTGCAG”, with 4470 fluorescence intensity (a.u.); and “TGCAAATCCAATCCAATCCAATCCCACCCCAAGCTCGCGGCGGAGTCACCTAGTGCAG”, with 4070 fluorescence intensity (a.u.); and “AGTGTTAATTAGGCCCTTCACAGTGCAACCCGGTGGACCGCGGAGTCACCTAGTGCAG”, with 14500 fluorescence intensity (a.u.).
Then “GGGATGTGTCAATTTAGGACCAAAATAATACACTTTGACACGGAGTCACCTAGTGCAG”, with 12000 fluorescence intensity (a.u.); and “GTAAGTCGTGTTAATTAAGCCTCCTAATCCATCACTGACACGGAGTCACCTAGTGCAG”, with 6180 fluorescence intensity (a.u.); and “GGATTCAATTATAAAAGCATCTCTCCATCAGCAAGCAAGGCGGAGTCACCTAGTGCAG”, with 3350 fluorescence intensity (a.u.).
As for “TGTTAATAATCATCTGGTAATTGATTGCTCTAAAGATAGACGGAGTCACCTAGTGCAG”, the binding signal is 31700 fluorescence intensity (a.u.).
Regarding “CTGCATGATTAGTTAGGCATAAGCATGTGACGAGGATCCTCGGAGTCACCTAGTGCAG”, the binding signal was 12400 fluorescence intensity (a.u.).
Turning to “ATTTTCTGTTAAACTTTTGATTGGATCCATCTTTGTAATCCGGAGTCACCTAGTGCAG”, the binding signal was 40400 fluorescence intensity (a.u.).
On to “GATAATTGTGGTGGAGAGAAAGAGGGCAATCTGGTCCAGACGGAGTCACCTAGTGCAG”, for which the binding signal is 16500 fluorescence intensity (a.u.).
In the case of “ATCTAACTAATTTGTTGGGTCCACCACATTGTTATAAATACGGAGTCACCTAGTGCAG”, the binding signal is 16100 fluorescence intensity (a.u.).
In the case of “GTGAGTGATGAATTCATCACTTGTAGACAGTTACATACCACGGAGTCACCTAGTGCAG”, the binding signal is 4020 fluorescence intensity (a.u.).
For the sequence “ATAACAGAGCTAGTACTTAATTGGAGGTTTGGAACACAACCGGAGTCACCTAGTGCAG”, the binding signal was 3980 fluorescence intensity (a.u.).
In the case of “TTAAATGATAGAAATACAATTATTACGGAATAGAATGTAGCGGAGTCACCTAGTGCAG”, the binding signal was 29100 fluorescence intensity (a.u.).
For the sequence “GGTTAAATTTCTCTTATTTATTAGGGTGCCACTTGACGGTCGGAGTCACCTAGTGCAG”, the binding signal was 10400 fluorescence intensity (a.u.).
Take “CATGTTTTACGTAAATTGATCAATATTGTGTAGCATCATACGGAGTCACCTAGTGCAG”: the binding signal was 7110 fluorescence intensity (a.u.).
Then “CATTGATAGTTTGGTGGGATTAGGATGGGAATCAATTGATCGGAGTCACCTAGTGCAG”, with 13900 fluorescence intensity (a.u.); and “ACAAAATTGGAGCGCTCATAATTTTACTGCAAGAAACCAGCGGAGTCACCTAGTGCAG”, with 6130 fluorescence intensity (a.u.).
Consider “CACTCATTGATTTGTCAGCTGCCCCATGTCGGCCGAGGTTCGGAGTCACCTAGTGCAG”, for which the binding signal is 28600 fluorescence intensity (a.u.).
On to “ATAGATAGATTTTAGAATCCCAAAACTCTCTTGTCGTCCTCGGAGTCACCTAGTGCAG”, for which the binding signal is 15600 fluorescence intensity (a.u.).
On to “TAGTCAATTTAATAGTCAATTCATACTACACTATTAATATCGGAGTCACCTAGTGCAG”, for which the binding signal is 16500 fluorescence intensity (a.u.).
On to “CGCGTGACAGTGCGAGTGATGATTAGAAAAGTAAAATCCGCGGAGTCACCTAGTGCAG”, for which the binding signal was 12400 fluorescence intensity (a.u.).
For “TTATGTAATTATTATTTATTTTATTGTGACTTAATTTATCCGGAGTCACCTAGTGCAG”, the binding signal was 15500 fluorescence intensity (a.u.).
Consider “ATTATTGATAGTCCAGTAACTTGGGTATGTGGGGAAGTGGCGGAGTCACCTAGTGCAG”, for which the binding signal was 23600 fluorescence intensity (a.u.).
With “GTGACGTCACCATTTTCATTTAATTAGAGTTGGCCGGAGACGGAGTCACCTAGTGCAG”, the binding signal is 3870 fluorescence intensity (a.u.).
With “TTGCGTTGTCGATTTATCAATCAATTGCTCAGATGCTAATCGGAGTCACCTAGTGCAG”, the binding signal was 17600 fluorescence intensity (a.u.).
Then “CAAATTATCAGAAAACTACAGATTTAACATGATGTATTATCGGAGTCACCTAGTGCAG”, with 3480 fluorescence intensity (a.u.); and “GTACAGGCTTAATTGGGTCCTTTCTTGGTGTCACAATCTGCGGAGTCACCTAGTGCAG”, with 7460 fluorescence intensity (a.u.).
For the sequence “ATTGTTAAATCAAGACGTAATTAGGCTCAAAAGATTTGTCCGGAGTCACCTAGTGCAG”, the binding signal is 13300 fluorescence intensity (a.u.).
